Results as given in PubChem BioAssay AID504333 (National Center for Advancing Translational Sciences (NCATS), 2011).
The whole screen tested about 360,000 compounds, of which about 16,000 (4.4%) were called active. Inconclusive means that the source gave no clear call. Such entries were picked first, then a sample of the others. Calls come from the whole dose curve; as a rule, active = well fitted inhibition curve with a large enough effect; inconclusive = small, poorly fitted or top-dose-only effect; inactive = no such curve, though single readings can be large or run the other way. Potencies of inconclusive entries are doubtful fits and often do not repeat. *1 amine or outer side, *2 acyl side, *3 side chain or, on linkers, in order; H or OH if unused. Where a SMILES comes first, the peptide text is derived from it. Bridges are numbered along the chain shown (N, C = ends). [ ]: non-standard residue; d: D form. ξ: configuration not given here. hSer(Ph(2-I,4-NO2,6-CO)) = O=C([C@H](CCOc1c(I)cc([N+](=O)[O-])cc1C(=O)[*:3])N[*:1])[*:2]; ξD = NC(CC(=O)O)C(=O)O

The compounds below were run against Bromodomain adjacent to zinc finger domain protein 2B (Homo sapiens) (UniProt Q9UIF8) (assay: qHTS Assay for Inhibitors of BAZ2B). Details: AlphaScreen BAZ2B-H3K14Ac peptide displacement; series mostly up to 114 µM.
Sequence of UniProt Q9UIF8 (Q9UIF8 whole entry, looked up, the tested form may be a part): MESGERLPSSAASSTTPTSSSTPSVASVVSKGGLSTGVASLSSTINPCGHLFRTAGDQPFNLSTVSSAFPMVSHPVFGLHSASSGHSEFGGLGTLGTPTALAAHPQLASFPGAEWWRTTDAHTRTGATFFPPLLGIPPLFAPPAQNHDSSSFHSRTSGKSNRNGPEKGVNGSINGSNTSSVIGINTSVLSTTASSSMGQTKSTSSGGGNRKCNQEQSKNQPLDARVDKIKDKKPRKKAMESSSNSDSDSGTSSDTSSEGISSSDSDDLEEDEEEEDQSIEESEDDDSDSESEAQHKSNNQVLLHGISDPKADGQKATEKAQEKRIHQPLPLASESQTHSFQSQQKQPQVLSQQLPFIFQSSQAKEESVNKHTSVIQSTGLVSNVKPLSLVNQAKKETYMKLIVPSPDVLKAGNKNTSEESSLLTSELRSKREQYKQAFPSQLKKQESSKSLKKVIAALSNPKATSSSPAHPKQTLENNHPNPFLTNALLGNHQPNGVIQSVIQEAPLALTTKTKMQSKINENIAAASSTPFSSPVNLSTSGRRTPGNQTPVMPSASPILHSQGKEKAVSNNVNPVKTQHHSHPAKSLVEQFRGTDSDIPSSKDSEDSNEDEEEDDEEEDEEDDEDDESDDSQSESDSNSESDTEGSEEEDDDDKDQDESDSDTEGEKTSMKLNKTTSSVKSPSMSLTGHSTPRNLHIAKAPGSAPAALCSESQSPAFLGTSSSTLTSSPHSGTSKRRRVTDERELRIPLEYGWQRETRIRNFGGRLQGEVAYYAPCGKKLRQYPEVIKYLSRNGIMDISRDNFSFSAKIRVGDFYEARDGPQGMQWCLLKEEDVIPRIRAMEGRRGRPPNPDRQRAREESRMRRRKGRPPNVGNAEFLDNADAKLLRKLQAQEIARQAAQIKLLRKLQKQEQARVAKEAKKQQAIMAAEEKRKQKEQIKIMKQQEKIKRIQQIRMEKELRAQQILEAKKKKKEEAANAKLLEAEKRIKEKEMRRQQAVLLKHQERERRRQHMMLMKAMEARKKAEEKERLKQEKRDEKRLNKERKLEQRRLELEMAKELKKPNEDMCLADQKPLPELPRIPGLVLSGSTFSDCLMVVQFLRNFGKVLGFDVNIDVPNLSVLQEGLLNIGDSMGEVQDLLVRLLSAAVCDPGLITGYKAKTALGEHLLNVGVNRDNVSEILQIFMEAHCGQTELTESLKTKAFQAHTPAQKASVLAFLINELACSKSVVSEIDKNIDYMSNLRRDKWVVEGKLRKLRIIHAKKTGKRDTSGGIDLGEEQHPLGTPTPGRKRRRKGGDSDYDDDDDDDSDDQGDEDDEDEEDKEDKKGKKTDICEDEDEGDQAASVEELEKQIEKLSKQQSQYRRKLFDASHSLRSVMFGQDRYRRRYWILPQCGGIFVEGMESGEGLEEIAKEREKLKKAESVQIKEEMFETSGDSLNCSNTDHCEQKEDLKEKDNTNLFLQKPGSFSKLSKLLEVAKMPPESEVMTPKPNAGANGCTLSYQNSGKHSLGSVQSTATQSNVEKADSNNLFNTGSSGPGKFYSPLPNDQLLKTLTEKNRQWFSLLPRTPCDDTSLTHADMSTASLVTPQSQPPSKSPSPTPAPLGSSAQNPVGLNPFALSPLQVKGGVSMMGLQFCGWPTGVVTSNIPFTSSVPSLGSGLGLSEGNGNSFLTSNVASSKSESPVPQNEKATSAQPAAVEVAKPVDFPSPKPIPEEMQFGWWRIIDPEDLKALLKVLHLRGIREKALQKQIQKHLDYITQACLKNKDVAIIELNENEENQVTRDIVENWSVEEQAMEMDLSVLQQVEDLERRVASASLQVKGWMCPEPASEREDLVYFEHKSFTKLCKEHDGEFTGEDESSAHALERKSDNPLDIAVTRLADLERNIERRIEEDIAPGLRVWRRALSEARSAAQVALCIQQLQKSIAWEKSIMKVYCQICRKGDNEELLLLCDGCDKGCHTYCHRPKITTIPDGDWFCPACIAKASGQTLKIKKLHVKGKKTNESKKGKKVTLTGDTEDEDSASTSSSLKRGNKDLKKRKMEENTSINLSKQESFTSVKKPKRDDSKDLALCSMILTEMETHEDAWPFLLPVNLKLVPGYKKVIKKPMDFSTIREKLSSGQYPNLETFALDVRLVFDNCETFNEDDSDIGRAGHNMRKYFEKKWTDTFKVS
In short: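 AlphaScreen displacement: compounds (up to 110uM) incubated 30 min at room temperature with a preformed 50 nM BAZ2B/50 nM biotinylated H3K14Ac peptide complex in PBS pH 7.4 with Tween-20. Donor and acceptor beads at 10 ug/mL final added, 20 min light-protected before reading.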
Note: nearly all actives have a fitted effect of over 60% in size.
Potency is the fitted concentration of half-maximal effect; tags give direction and shape of the fitted curve.

Row | SMILES | Potency
1 | Cc1ccc2[nH]c(CN3CCC(CO)(CC4CCCCO4)CC3)c(C)c2c1 (centres undefined) | inconclusive: 17.8 µM [inhibitor, full curve, poor fit]
2 | COc1ccc(C[C@@H]2CN3C(=NC[C@@H]3C)N2C[C@H](C)NC(=O)c2ccc(C)c(Br)c2)cc1 | inactive
3 | COc1ccc(NS(=O)(=O)c2cc3c4c(c2)C(C)C(=O)N4CCC3)cc1 (centres undefined) | inactive
4 | O=C(NCCCl)NNC(=O)c1cc2ccccc2cc1O | inconclusive: 79.4 µM [inhibitor, partial curve]
5 | Cc1cccc(N=C2NC(=O)/C(=C/c3cccn3C)S2)c1 | active: 39.8 µM
6 | COCCNc1ncnc2c1cnn2-c1cc(Cl)ccc1C | inactive
7 | Cc1ccccc1-c1nc(C#N)c(N2CCCCC2)o1 | active: 22.4 µM
8 | O=c1cc2ncc(-n3cc([N+](=O)[O-])cn3)cn2[nH]1 | inactive
9 | O=C(O)c1ccc(-n2nc(C(F)(F)F)c3c2CCCC3)cc1 | inconclusive: 89.1 µM [inhibitor, single point]
10 | CN(C)CCN(CC1CCCN(Cc2ccccc2F)C1)C(=O)c1ccc(Cl)cc1 (centres undefined) | inactive
11 | CCCCn1c(N)c(N(Cc2ccccc2OC)C(=O)CCSC)c(=O)[nH]c1=O | inactive
12 | O=C(CSc1nc2ccsc2c(=O)n1NC(=O)c1ccccc1)NCc1ccco1 | inconclusive: 89.1 µM [inhibitor, single point]
13 | COc1ccc(N2C(=O)CSC23C(=O)N(Cc2ccccc2F)c2ccccc23)cc1Cl (centres undefined) | inconclusive: 79.4 µM [inhibitor, single point]
14 | CC(NC(=O)CSc1nc(-c2ccccc2F)nc2cc(=O)[nH]n12)c1nc2ccccc2n1C (centres undefined) | inactive
15 | COc1ccc(-c2cc(C(=O)N/N=C/c3sccc3C)c3ccccc3n2)c(OC)c1 | inconclusive: 100 µM [inhibitor, single point]
16 | Cc1ccc(CNC(=O)Cn2ccn(-c3ccc(F)cc3)c(=O)c2=O)cc1 | inactive
17 | Cc1ccccc1C1C(C#N)=C2NC(=O)c3c(sc4c3CCCCC4)N2C2=C1C(=O)CC(C)(C)C2 (centres undefined) | inactive
18 | CCOC(=O)C1=C(C)N=c2s/c(=C\c3cccc(OCC(=O)O)c3)c(=O)n2C1c1ccccc1OC (centres undefined) | active: 50.1 µM
19 | O=C(Nc1ccc(N2CCOCC2)c(C(=O)O)c1)c1ccc(Br)cc1 | inconclusive: 89.1 µM [inhibitor, single point]
20 | C/C(=N\NC(=O)CSCc1ccccc1Cl)c1cc(O)ccc1O | active: 39.8 µM
21 | Cc1ccc(OCC(=O)N(Cc2ccc(N(C)C)cc2)C2CCS(=O)(=O)C2)cc1 (centres undefined) | inconclusive: 44.7 µM [inhibitor, partial curve]
22 | Cc1ccc(NC(=O)CC2S/C(=N/N=C3/NC(=O)CS3)NC2=O)cc1 (centres undefined) | active: 56.2 µM
23 | Cc1cc2cc(CNC(=O)C3CC3)ccc2n1C | inconclusive: 89.1 µM [inhibitor, single point]
24 | Cc1ccc(NC(=O)c2c(C)oc3ncn(CC(C)C)c(=O)c23)nc1 | inactive
25 | Cn1c(=O)[nH]c(=O)c2c1nc(OC(=O)c1ccccc1)n2CC(O)COc1ccccc1 (centres undefined) | inconclusive: 79.4 µM [inhibitor, partial curve]

Row | SMILES | Potency
26 | O=C(Cc1ncc(C(F)(F)F)cc1Cl)NCCc1ccccn1 | inconclusive: 89.1 µM [inhibitor, single point]
27 | C=CCc1ccccc1OCCn1ccnc1 | active: 50.1 µM
28 | COc1ccccc1-c1nnc(SCC(=O)Nc2nc(-c3ccccc3)cs2)n1C | inconclusive: 50.1 µM [inhibitor, partial curve]
29 | Cc1ccc(S(=O)(=O)N(Cc2n[nH]c(=S)n2-c2ccccc2)c2ccccc2)cc1 | inconclusive: 70.8 µM [inhibitor, single point]
30 | COc1cccc(/C=C2\SC(=S)N(CC3CCCO3)C2=O)c1 (centres undefined) | active: 8.91 µM
31 | CC[n+]1c(C)sc2cc(OC)ccc21 | inactive
32 | CCCCNCCOCCOc1ccc(C)cc1[N+](=O)[O-] | inconclusive: 79.4 µM [inhibitor, single point]
33 | Cc1cccc(N2CCN(C(=S)Nc3ccc4nc(N5CCN(C)CC5)cc(C)c4c3)CC2)c1C | inconclusive: 6.31 µM [inhibitor, full curve]
34 | CCN(CC)c1cc(Cl)c2nonc2c1N | inconclusive: 44.7 µM [inhibitor, partial curve]
35 | O=C(NCC1CCCO1)C(c1cccs1)N(C(=O)c1ccc(-c2ccccc2)[nH]1)C1CCCC1 (centres undefined) | inconclusive: 44.7 µM [inhibitor, partial curve]
36 | CN(Cc1ccc(F)cc1)C(=O)c1cc(S(=O)(=O)N2CCCCC2)ccc1N1CCOCC1 | inactive
37 | Cc1cccc(NC(=S)N(CCCN2CCCC2)Cc2cccn2Cc2ccc(Cl)cc2)c1 | inconclusive: 50.1 µM [inhibitor, partial curve]
38 | COc1cc(/C=N/N2C(=O)CSC2=S)cc(Br)c1O | active: 39.8 µM
39 | Cc1ccc(C)c(NS(=O)(=O)c2ccc3oc(=O)c4ncn(C)c4c3c2)c1 | inactive
40 | CCOC(=O)Cc1csc(NC(=O)c2ccc(Br)o2)n1 | inconclusive: 10 µM [inhibitor, single point]
41 | Cn1c(Oc2ccc(Cl)cc2)c(C=O)c2ccccc21 | inactive
42 | Cc1cc(Nc2ccc(O)cc2)ccc1N | active: 6.31 µM
43 | Cc1nn(CC(=O)N2CCN(C34CC5CC(CC(C5)C3)C4)CC2)c(C)c1[N+](=O)[O-] | inactive
44 | COc1ccc(NC(=O)CN(C)CC(=O)Nc2cccc(C(C)=O)c2)cc1 | active: 35.5 µM
45 | CCOC(=O)C1CCCN(C(=O)c2ccc3nc(-c4cccc(OC)c4)oc3c2)C1 (centres undefined) | inactive
46 | O=C(Cc1ccccc1)Nn1cnc2ccccc21 | inconclusive: 89.1 µM [inhibitor, single point]
47 | Cc1ccc(C)c(S(=O)(=O)N2CCCCC2CCNC(=O)C(=O)NCc2ccncc2)c1 (centres undefined) | inactive
48 | C=CCN1C(=O)/C(=C/C=C2/N(CC)c3ccc(S(=O)(=O)N(C)C)cc3N2CC)SC1=S | inconclusive: 44.7 µM [inhibitor, partial curve]
49 | NC(=O)C(CC(=O)O)NC(=O)[C@@H]1CCOc2c(I)cc([N+](=O)[O-])cc2C(=O)N[C@@H](CO)C(=O)N[C@@H](Cc2ccc(O)cc2)C(=O)N1 (some centres undefined) (SY[hSer(Ph(2-I,4-NO2,6-CO))][ξD]-NH2; lactam N-3) | inconclusive: 79.4 µM [inhibitor, single point]
